Results published in PubChem BioAssay AID445 (National Center for Advancing Translational Sciences (NCATS), 2006).
Out of some 110,000 compounds screened, about 40 (0.04%) were called active. Inconclusive means that the source gave no clear call. Such entries were picked first, then a sample of the others. Calls come from the whole dose curve; as a rule, active = well fitted curve in the direction sought with a large enough effect in the signal ratio (not every such curve was filed as active); inconclusive = small, poorly fitted or top-dose-only effect, or a change in a side signal; inactive = flat fitted curve, though single readings scatter; the % refers to the signal ratio. Where the call is inconclusive, the potency comes from a doubtful curve fit.

Experiment: IkB Signaling;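 for IkBa stabilization activation: 0% = basal untreated cells and 100% = reference inhibitor full response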
Conditions: ABC-DLBCL IkBa-CBG/CBR dual luciferase ratio (green luciferase fused to IkBa over red control in OCI-Ly3 lymphoma cells), 4 h; IkBa stabilization activation: at 57.1 µM (top of the series), scaled: untreated 0%, proteasome inhibitor 100% unless noted
Method in brief: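 Luminescence ratio of IκBα-fused green versus native red beetle luciferase in OCI-Ly3 cells, 4 h post-doxycycline with compound; red signal alone, scaled from basal (0%) to zero light (-100%), flagged nonspecific or cytotoxic effects.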
Potency is the fitted concentration of half-maximal effect.

Row | SMILES | IkBa stabilization activation | Potency
1 | Cc1ccccc1OCCCn1c(CCNC(=O)C2CCCCC2)nc2ccccc21 | inconclusive: 12.2% [signal inhibitor] | 
2 | CN(C(=O)Cn1c(=O)n(CCC(=O)NCc2ccc3c(c2)OCO3)c(=O)c2sccc21)c1ccccc1 | inconclusive: 3.08% [signal inhibitor] | 
3 | Cc1ccc(-n2ncc(C(=O)N3CCN(C4CCCCC4)CC3)c2C2CCN(C(=O)OC(C)(C)C)CC2)cc1C | inconclusive: 0.836% [signal inhibitor] | 
4 | COc1ccc(CCNC(=O)c2nnn(-c3ccccc3OC)c2N)cc1OC | inconclusive: 8.25% [signal inhibitor] | 
5 | Cc1c(C(=O)Nc2ccc3oc(-c4cccnc4)nc3c2)oc2ccccc12 | inactive | 
6 | CN(C)/C=C1\C(=O)c2ccc(N(C)C)nc2CC1c1ccccc1 (stereo not drawn) | inconclusive: -1.6% [signal inhibitor] | 
7 | Cn1c(CN2CCOCC2)nc2cc(NC(=O)c3ccc(Cl)cc3)ccc21 | inconclusive: 10% [signal inhibitor] | 
8 | O=c1c2ccccc2sc2c(CO)ccc(NCCN3CCCCC3)c12 | inactive: -2.06% [at 11.4 µM, scaled: untreated 0%, proteasome inhibitor 100%] | 
9 | O=C1C(=O)c2ccccc2C(O)=C1C(C1=C(O)c2ccccc2C(=O)C1=O)c1ccc(Cl)cc1 |  | inconclusive: 3.98 µM [signal inhibitor, partial curve]
10 | O=c1c(-c2cc(F)cc(F)c2)nc2cnc(Nc3ccccc3)nc2n1C[C@H]1CCCO1 | inactive: -2.13% [at 11.4 µM, scaled: untreated 0%, proteasome inhibitor 100%] | 
11 | CC1CCCN(S(=O)(=O)c2ccc(NC(=O)Cn3nnc(-c4ccccc4F)n3)cc2)C1 (stereo not drawn) | inconclusive: 2.82% [signal inhibitor] | 
12 | COc1ccc(CNc2nc3c(-c4ccc(C)cc4)nnn3c3ccccc23)cc1 | inactive | 
13 | CCC(=O)N1CCc2cc(Br)cc(S(=O)(=O)CCC(=O)N(C)c3cccc(C)c3)c21 | inactive | 
14 | CCOc1ccc(NC(=O)CC2C(=O)N(c3ccc(F)cc3)C(=O)N2CCc2sccc2C)cc1 (stereo not drawn) | inconclusive: 2.89% [signal inhibitor] | 
15 | COc1ccc(NC(=O)CN2C(=O)CSc3ccc(S(=O)(=O)N(C)C)cc32)cc1OC | inconclusive: 0.851% [signal activator] | 
16 | Cc1nc(NC2=NCN(CCCN3CCOCC3)CN2)nc2c(C)cccc12 |  | inconclusive: 31.6 µM [rising, single point]
17 | COc1ccc(-c2ccc(SCC(=O)N3CCOCC3)nn2)cc1 | inactive | 
18 | CCNS(=O)(=O)c1cc(-c2nnc(Nc3cccc(C(F)(F)F)c3)c3ccccc23)ccc1C | inconclusive: 9.59% [signal inhibitor] | 
19 | Cc1ccc2c(CC(=O)N3CCc4ccccc43)coc2c1 | inactive | 
20 | Cc1ccc(C)c(NC(=O)CCS(=O)(=O)c2cccc3nsnc23)c1 | inconclusive: 1.14% [signal inhibitor] | 
21 | COc1ccc(OC)c(NC(=O)CSc2nc3c(c(=O)n(C)c(=O)n3C)n2C)c1 | inactive | 
22 | Cc1ccc(NC(=O)Cn2c(CCC(=O)O)ccc2-c2cccs2)cc1Cl | inconclusive: 2.17% [signal inhibitor] | 
23 | Cn1c(=O)oc2cc(S(=O)(=O)N3CCCC(C(=O)N4CCN(c5ccc(Cl)cc5)CC4)C3)ccc21 (stereo not drawn) | inconclusive: 0.826% [signal inhibitor] | 

Row | SMILES | IkBa stabilization activation | Potency
24 | Cc1ccc(C)c(N2CCN(C(=O)C3CCN(S(=O)(=O)c4ccc5[nH]c(=O)oc5c4)CC3)CC2)c1 | inconclusive: 8.77% [signal inhibitor] | 
25 | CCOC(=O)Nc1cccc(NC(=O)c2cc(OC)cc(OC)c2)c1 | inconclusive: 16.4% [signal inhibitor] | 
26 | COCCNC(=O)c1cc2c(-c3ccc(Cl)cc3)nn(C)c2s1 | inactive | 
27 | Cc1cccc(N2CCN(C(=O)CCCn3c(=O)[nH]c4ccsc4c3=O)CC2)c1C | inconclusive: 6.66% [signal inhibitor] | 
28 | O=C(NC1CCCCC1)c1ccc(CSc2nc3ccncc3n2Cc2ccccc2)cc1 | inconclusive: 2.74% [signal inhibitor] | 
29 | CCCN1Cc2cccc(C(=O)Nc3ccc(CN4CCCC4)cc3)c2C1=O | inactive | 
30 | Cc1ccc(NC(=O)Cn2c(=O)n(CCCC(=O)NCc3ccc4c(c3)OCO4)c(=O)c3ccccc32)cc1 | inconclusive: 12% [signal inhibitor] | 
31 | CNc1nc(NC)nc(-n2c(C(F)(F)F)nc3ccccc32)n1 | inactive | 
32 | Brc1c(CSc2nnc(-c3ccco3)o2)nc2ccccn12 | inactive | 
33 | O=C(CC(NS(=O)(=O)c1ccc(Cl)cc1)c1ccco1)NCc1ccco1 (stereo not drawn) | inactive | 
34 | COc1ccc(N2CCN(CCCNC(=O)c3ccc4nc(Cc5ccccc5)oc4c3)CC2)cc1 | inactive | 
35 | O=C(CSc1ccc(-c2nc3ccccc3[nH]2)cn1)N1CCN(C(=O)c2ccco2)CC1 | inconclusive: -0.609% [signal inhibitor] | 
36 | Cc1cc(C)cc(NC(=O)c2cccc(C(=O)Nc3cc(C)cc(C)c3)c2)c1 | inactive | 
37 | COc1cc2c(C(=O)NCCCN3CCN(c4cccc(Cl)c4)CC3)cn(C)c(=O)c2cc1OC | inactive | 
38 | O=C(Cn1cc(C(=O)c2cccs2)c2ccccc21)NCc1cccs1 | inconclusive: 2.7% [signal inhibitor] | 
39 | CSc1cccc(NC(=O)CN2C(=O)CCc3cc(S(=O)(=O)N4CCCCC4)ccc32)c1 | inactive | 
40 | CCOc1ccccc1NC(=O)CSc1ccc2nc(-c3ccccc3)cn2n1 | inactive | 
41 | CCc1ccc2oc(-c3ccc(NC(=O)c4cccc(Cl)c4Cl)cc3)nc2c1 |  | inconclusive: 12.6 µM [signal inhibitor]
42 | CCOc1ccc(/C=C/c2nc(C#N)c(NCCCN(C)C)o2)cc1 | inconclusive: 2.61% [signal inhibitor] | 
43 | COC(=O)c1ccccc1NC(=O)Cn1c(=O)n(CCCC(=O)NCc2ccccc2Cl)c(=O)c2ccccc21 |  | inconclusive: 12.6 µM [signal inhibitor]
44 | COc1ccc2nc(C)cc(Nc3ccc(N4CCOCC4)cc3)c2c1 | inactive | 
45 | O=C(COc1ccccc1Cl)N(Cc1cccc(F)c1)C1CCS(=O)(=O)C1 (stereo not drawn) | inconclusive: 5.86% [signal inhibitor] | 
46 | COc1ccccc1N1CCN(C(=O)c2cc3c(-c4ccccc4F)nn(C)c3s2)CC1 | inconclusive: 3.6% [signal inhibitor] | 

Row | SMILES | IkBa stabilization activation | Potency
47 | Cc1ccc(-n2c(=O)c3c(cnn3C)n(CC(=O)Nc3cccc(C)c3)c2=O)cc1 | inconclusive: 11.2% [signal inhibitor] | 
48 | Cc1cc2nc3[nH]c4c(Cl)cc(Cl)cc4c3nc2cc1C | inactive: 1.22% [at 11.4 µM, scaled: untreated 0%, proteasome inhibitor 100%] | 
49 | COc1ccc2c(c1)CC(C(=O)NCCc1ccc(S(N)(=O)=O)cc1)CO2 (stereo not drawn) | inconclusive: 0.915% [signal inhibitor] | 
50 | O=C(O)c1cccc(COc2ccc(CO)cc2Cl)c1 |  | inconclusive: 3.98 µM [signal inhibitor, full curve]
51 | O=C1c2ccccc2C(=O)N1CCCc1nc(-c2ccccn2)no1 | inconclusive: 5.56% [signal inhibitor] | 
52 | O=c1c(-c2cc(F)cc(F)c2)nc2cncnc2n1Cc1ccccc1 | inactive: 2.21% [at 11.4 µM, scaled: untreated 0%, proteasome inhibitor 100%] | 
53 | COc1cc2ccccc2cc1C(=O)N1CCN(c2nc3c(F)cc(F)cc3s2)CC1 | inconclusive: 1.87% [signal inhibitor] | 
54 | Cc1noc(C)c1-c1ccc2ncnc(NCc3cccnc3)c2c1 | inconclusive: 15.1% [signal activator] [at 11.4 µM, scaled: untreated 0%, proteasome inhibitor 100%] | 
55 | CC1CCCC(C)N1C(=O)Cn1c(SCC(=O)NCc2ccc3c(c2)OCO3)nc2ccccc21 (stereo not drawn) | inactive | 
56 | CC1=C(C(=O)Nc2cccnc2)C(c2ccccc2Cl)n2nc(-c3ccccc3)nc2N1 (stereo not drawn) | inconclusive: 2.65% [signal inhibitor] | 
57 | CCOc1ccccc1C(=O)NCc1ccc2c(c1)CCN2C(=O)c1ccccc1 | inconclusive: 3.11% [signal inhibitor] | 
58 | CCCS(=O)(=O)C(=C1Nc2ccccc2N1)S(=O)(=O)CCC | inconclusive: 16.4% [signal inhibitor] | 
59 | Cc1ccc(NC(=O)CCSc2nc(-c3ccc4c(c3)OCO4)cc(C(F)(F)F)n2)c(C)c1 | inactive | 
60 | COc1ccc(CCNC(=O)c2ccc(Cn3c(SCC(=O)NCCC(C)C)nc4cc5c(cc4c3=O)OCO5)cc2)cc1OC |  | inconclusive: 39.8 µM [signal activator]
61 | CCCCOC(=O)C1=C(C)Nc2ncnn2C1c1cc(OC)c(OC)cc1OC (stereo not drawn) | inactive | 
62 | CC1CCN(CCNC(=O)CN(C)S(=O)(=O)c2cccc3nsnc23)CC1 | inactive | 
63 | c1ccc(-c2cnc(-c3cccnc3)o2)cc1 | inactive | 
64 | Clc1cccc(-n2ncc3c(NCCCN4CCOCC4)ncnc32)c1 | inconclusive: -3.3% [signal inhibitor] | 
65 | COc1ccc(-c2noc(CN(C(=O)c3c(-c4ccccc4Cl)noc3C)C(C)C)n2)cc1 | inconclusive: 2% [signal inhibitor] | 
66 | CC(=O)c1c(C)n(-c2ccc(C)cc2)c2ccc(OC(=O)COc3ccccc3)cc12 | inconclusive: 3.3% [signal inhibitor] | 
67 | COc1cc(-c2ccno2)ccc1S(=O)(=O)N1CCN(c2ccccc2)CC1 | inconclusive: 4% [signal inhibitor] | 
68 | O=C(CSc1nnc(CNc2ccc(F)cc2)o1)N1CCCc2ccccc21 | inconclusive: 15.6% [signal inhibitor] | 
